The text below walks through data of patent publication US20090247734A1 (priority 2005, published 2009).

Assay [1] has as its target full length YU2 gp120 (HIV-1 strain YU2) (UniProt P35961). Nature of the assay: ITC, gp120 equilibrated with D1D2.
Another assay relates to YU2 gp120. To be noted: peptide at 1 mM.

As to “17b (human monoclonal antibody of gp120)”, the fold enhancement of binding affinity in the presence of D1D2 in assay [1] amounted to 4 fold. Consider PSCDLQ [Compound G1C], for which, in the assay on YU2 gp120, the “inhibitory effect on gp120-CD4 binding” value is “little appreciable interaction with gp120”.
